Test results taken from the supplement of paper PMC3334620.
In all, about 33,000 sequences were measured (“E-score (-0.5 to 0.5)”: median about -0.041, highest 2% from about 0.37 on). Some of the results follow.

target: T1, Ecm22 (UniProt Q05958); assay: PBM E-score (8-mer binding enrichment) (E-score (-0.5 to 0.5)); higher = stronger / more preferred TF binding; most listed sequences are background and not binding sites; conditions: protein concentration: 200 nM; construct: GST-full length
T1 sequence: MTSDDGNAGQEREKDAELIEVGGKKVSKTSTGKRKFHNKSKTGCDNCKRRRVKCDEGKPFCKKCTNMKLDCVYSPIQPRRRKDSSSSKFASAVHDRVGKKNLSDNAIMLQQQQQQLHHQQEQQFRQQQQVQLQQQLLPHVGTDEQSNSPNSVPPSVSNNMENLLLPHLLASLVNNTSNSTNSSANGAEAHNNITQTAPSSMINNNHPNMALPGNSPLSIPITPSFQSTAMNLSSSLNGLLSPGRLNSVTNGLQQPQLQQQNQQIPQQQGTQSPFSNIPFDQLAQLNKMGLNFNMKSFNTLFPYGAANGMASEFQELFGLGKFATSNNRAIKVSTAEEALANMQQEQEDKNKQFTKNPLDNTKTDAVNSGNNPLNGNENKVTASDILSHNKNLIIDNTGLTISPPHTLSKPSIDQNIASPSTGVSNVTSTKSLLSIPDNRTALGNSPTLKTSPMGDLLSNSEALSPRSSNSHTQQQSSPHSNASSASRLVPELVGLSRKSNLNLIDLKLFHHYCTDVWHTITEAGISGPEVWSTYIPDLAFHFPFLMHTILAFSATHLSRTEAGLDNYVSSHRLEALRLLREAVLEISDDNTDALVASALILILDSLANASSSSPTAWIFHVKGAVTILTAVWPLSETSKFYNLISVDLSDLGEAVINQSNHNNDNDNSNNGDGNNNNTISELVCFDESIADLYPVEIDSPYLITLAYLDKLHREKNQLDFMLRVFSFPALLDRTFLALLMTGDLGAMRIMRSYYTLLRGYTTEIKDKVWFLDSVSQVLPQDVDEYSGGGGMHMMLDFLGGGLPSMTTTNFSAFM
Description: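 Universal 'all 10-mer' protein binding microarrays (Agilent AMADID 015681) probed with GST-tagged S. cerevisiae TFs (full-length or DBD) made by in vitro transcription/translation (PURExpress), about 100-200 nM. Bound TF was detected with fluorescent anti-GST. Each ungapped 8-mer (which stands for itself and its reverse complement) is scored by the PBM enrichment score (E-score), a modified Wilcoxon-Mann-Whitney statistic from -0.5 to +0.5, computed with the Universal PBM Analysis Suite. Scale: above 0.35 generally sequence-specific binding.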

| Sequence | PBM E-score |
| --- | --- |
| AAGGGGCG | -0.306 |
| GCGCTTCA | -0.0388 |
| GAGACTGC | -0.128 |
| ATCACCCC | -0.154 |
| AACTTATC | -0.0669 |
| GCGCGTCC | -0.0857 |
| CTAAAAAC | 0.0187 |
| CCTAGCCG | -0.208 |
| AGCCCAGA | -0.163 |
| ACAACAGA | -0.229 |
| ATAGGCAG | -0.103 |
| CGTACTTC | 0.344 |
| TACCCGAA | 0.236 |
| CGCACCTA | 0.0572 |
| ACATATCG | 0.117 |
| GAGGTTCA | 0.025 |
| TGAGAAAA | -0.205 |
| GCACTGCC | -0.0432 |
| CATTTCTC | -0.0553 |
| AACCCCCA | -0.325 |
| AAACCGAT | 0.0836 |
| CAGCGGCC | -0.186 |
| CGTTATAG | -0.0415 |
| ATGTGGTG | 0.0867 |
| GCGGCTCA | -0.0342 |

| Sequence | PBM E-score |
| --- | --- |
| ATTCCAAA | -0.141 |
| CGATAGAG | 0.166 |
| CGCACTCA | 0.0863 |
| GGCCGGCA | -0.154 |
| TGACCACA | -0.287 |
| ACTTCTAG | -0.222 |
| AAACATAG | -0.0903 |
| AAGTGCGG | -0.237 |
| CCATTGTC | -0.211 |
| AGCCGTAG | 0.0779 |
| ATTGGGGG | -0.243 |
| ACATGTTC | -0.0332 |
| GCCAGTAA | -0.051 |
| ACAATAGA | -0.00658 |
| AATTGTGC | 0.0283 |
| CGGCCGCC | -0.0473 |
| CCTATCGA | -0.186 |
| GAGGCCGA | 0.0575 |
| CGTCAGGC | -0.163 |
| CTCCCACC | -0.101 |
| CGTCTAGA | 0.0727 |
| ACTTTATG | -0.0212 |
| GCGTACGA | 0.448 |
| TAATAGGA | -0.0272 |
| CGTGCTCA | -0.0532 |

| Sequence | PBM E-score |
| --- | --- |
| CCACGACG | -0.116 |
| GATGCCAA | -0.112 |
| AGGGTTTA | -0.0818 |
| TCTTTAAA | -0.0798 |
| ATTGAGGG | -0.259 |
| ATAAGTAT | 0.142 |
| CCGCTCCC | 0.131 |
| AGACTCAC | -0.22 |
| CAGGTTAG | -0.171 |
| CTTCGTTA | 0.303 |
| ATATCTAG | -0.0386 |
| ATTCGCCG | 0.19 |
| CGCGTAAG | 0.165 |
| CGACACCA | 0.148 |
| CAGCGCCA | -0.179 |
| GTAGCGAA | 0.287 |
| CAATTATC | 0.0964 |
| ATCCCCCA | -0.338 |
| GAACGCCC | 0.0215 |
| GCCTAAGC | -0.232 |
| ACTGGAAG | -0.211 |
| AATTTGGC | -0.0443 |
| ACGAGCGC | 0.327 |
| ATGTGATA | 0.045 |
| AATTACGT | 0.0683 |

| Sequence | PBM E-score |
| --- | --- |
| AAGACGGG | -0.114 |
| AGACGGAC | -0.202 |
| GACCGTAA | 0.283 |
| CAGCAGTA | -0.132 |
| GCATTACC | -0.17 |
| CAGCTCTC | -0.204 |
| TAGGACTA | -0.25 |
| AAATCTTG | -0.173 |
| AACGTCGA | 0.178 |
| CAAACGTG | 0.054 |
| TAGCATAA | -0.00664 |
| CACAATAG | -0.0503 |
| GGCCGGAA | -0.17 |
| ACGGTAGC | -0.00152 |
| CTCGCTTC | 0.227 |
| ACATATGG | -0.024 |
| CTACAACC | 0.0766 |
| GGCGCAGA | -0.15 |
| ATGATGGG | -0.313 |
| GTTTGCCA | -0.0654 |
| AAACCCAT | -0.00776 |
| ACGAGACG | 0.394 |
| AACCGTGT | -0.0312 |
| AGTGCCGG | -0.131 |
| ATAGCAAG | -0.182 |

| Sequence | PBM E-score |
| --- | --- |
| AGCTTGAT | -0.191 |
| CACTAAGC | -0.0471 |
| GCGTCAAC | -0.0774 |
| GTTAGTCA | 0.0344 |
| ACTGCACC | -0.121 |
| CACGCAAG | -0.131 |
| CGGGGACA | -0.131 |
| CATTGAGC | -0.228 |
| TAGTCAAA | -0.0457 |
| TTACGGAA | 0.266 |
| CGAAGAGC | 0.181 |
| ACGGTCCT | -0.195 |
| CGATCTTA | 0.14 |
| CTTAAGAC | -0.129 |
| ATGCGCTA | -0.0545 |
| CCGCGTAA | 0.08 |
| CTGAGGCA | -0.207 |
| CAACTCAA | -0.131 |
| CGTAAAAG | 0.367 |
| CGATGCGC | 0.164 |
| AACGATAT | 0.408 |
| AAAATCCG | 0.0356 |
| ATACTATA | 0.123 |
| AAAATCGA | 0.0644 |
| GCGTCTGA | -0.112 |

| Sequence | PBM E-score |
| --- | --- |
| CGGAACCG | 0.21 |
| CGTAACCA | 0.149 |
| CCTTCCCC | -0.0759 |
| ACACCAGA | -0.0212 |
| CCAAGGGC | -0.28 |
| AAACGTTA | 0.18 |
| AATGGGAT | -0.207 |
| CACGAGAG | 0.0712 |
| GACCTGAA | -0.172 |
| CTAATCTC | 0.127 |
| TCAGCTAA | 0.0187 |
| CGCATGTC | 0.065 |
| GATACATA | 0.107 |
| AAAGTGGG | 0.0233 |
| AATTATAT | 0.263 |
| CGCGCGAG | 0.157 |
| AGAACAAA | 0.0892 |
| CAGCTAGC | -0.182 |
| CGATCTCC | 0.0257 |
| TTTAGAAA | 0.0255 |
| CGGTTTAC | 0.239 |
| GCTCTATA | -0.109 |
| AGTCCTGA | -0.298 |
| AATGGACT | -0.109 |
| CTGACTGA | -0.189 |

| Sequence | PBM E-score |
| --- | --- |
| ACCTCGAC | -0.0677 |
| CTAGGGTA | -0.252 |
| GTTCCAAA | 0.147 |
| ATTCTATC | -0.0465 |
| AGGACACC | -0.0391 |
| AATAGCAG | -0.266 |
| AATCGGTG | -0.0662 |
| GATCATGC | -0.205 |
| AGGTGGGA | -0.121 |
| AATAAACA | 0.0258 |
| GGCATATA | 0.216 |
| ACCGCTGA | 0.141 |
| CCAAACGC | 0.177 |
| TGGGTAAA | 0.0399 |
| AATGGGAG | -0.153 |
| ACGTTGTG | -0.026 |
| CGGCGACA | -0.0728 |
| ACGTCTCC | 0.0834 |
| GAGAAATC | 0.147 |
| GACTCCGA | -0.237 |
| GCCGACAA | 0.0252 |
| ATCTTTGA | -0.00074 |
